In all, about 120,000 compounds went through this assay and about 5,300 (4.4%) were called active. This list was built around the results that the source calls inconclusive (neither active nor inactive); the mix of calls is not that of the screen. Calls come from the whole dose curve; as a rule, active = well fitted inhibition curve with a large enough effect; inconclusive = small, poorly fitted or top-dose-only effect; inactive = no such curve, though single readings can be large or run the other way. Potencies of inconclusive entries are doubtful fits and often do not repeat.
experiment: qHTS Primary assay for Inhibitors of Plasmodium falciparum Dd2 growth in vitro; note: nearly all actives have a fitted effect of over 65% in size;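 for activity, negative = inhibition: plate controls were DMSO vehicle for no effect and reference drug for full effect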; details: P. falciparum Dd2 growth, SYBR Green, 72 h; activity, negative = inhibition: at 28.9 µM (top of the series) unless noted; series mostly up to 28.9 µM
Procedure, shortened: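 Readout: SYBR Green fluorescence, 485 nm excitation, 535 nm emission, after ~16 h lysis at 37C. Before that, Dd2-infected red cells (2.5% hematocrit) grew 72 h with compound, 29 uM top final concentration.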
Potency is the fitted concentration of half-maximal effect; tags give direction and shape of the fitted curve.

Compound	Potency	activity, negative = inhibition
COc1ccc(CNCc2ccc(C)s2)cc1OCC(O)CN1CCCCC1 (centres undefined)	inconclusive: 1.58 µM [inhibitor, full curve, poor fit]	–
Cc1cc(=O)n(CC(=O)Nc2ccc(F)c(Cl)c2)c(N2CCc3ccccc3C2)n1	inactive	–
CCC1Oc2ccc(NC(=O)Cc3ccc(F)cc3)cc2CN(Cc2ccc(Cl)cc2)C1=O (centres undefined)	inactive	–
CCOC(=O)c1[nH]c(C)c(CCC(=O)NCc2ccc(C)cc2)c1C	inconclusive: 17.8 µM [inhibitor, single point]	–
Cn1cc(CN2CCCN(S(=O)(=O)c3ccccc3)CCC(=O)NCC2)c2ccccc21	inconclusive: 10 µM [inhibitor, single point]	–
CN1C(=O)CCC2(CNC(=O)CCc3nc4ccccc4[nH]3)CCC=C12 (centres undefined)	inconclusive: 0.891 µM [inhibitor, partial curve, poor fit]	–
Cc1cccc(C(C(=O)O)N2CCC(C(=O)N3CCCC3)CC2)c1C (centres undefined)	inactive	–
Cc1nc(-c2ccc(F)cc2)n(Cc2ccccc2F)c(=O)c1CCO	inconclusive: 17.8 µM [inhibitor, single point]	–
COc1cc(CN2C[C@@H](CO)[C@H](c3ccncc3)C2)ccc1F	inconclusive: 4.47 µM [inhibitor, partial curve]	–
c1ccc(Cn2cc(CN3CCN(c4ccncc4)CC3)c(-c3cc4ccccc4o3)n2)cc1	inconclusive: 3.98 µM [inhibitor, single point]	–
O=[S+]([O-])(c1ccccc1)N1CCn2c(nnc2-c2ccccc2)C1	inactive	–
CCNC(=O)O[C@@H]1CO[C@H]2[C@@H]1OC[C@@H]2Nc1nccc(-c2ccc(-c3ccccc3)cc2)n1	inconclusive: 17.8 µM [inhibitor, single point]	–
CCOc1cccc(CNC(=O)c2nnn3c2COC(c2ccc(C)cc2)C3)c1 (centres undefined)	inconclusive: 7.94 µM [inhibitor, partial curve, poor fit]	–
CC(C)c1nc2c(c(-c3ccc(O)cc3)n1)CCN(Cc1ccccc1)CC2	inconclusive: 7.94 µM [inhibitor, partial curve, poor fit]	–
O=C1NCc2ccccc2CC12CCCN2Cc1ccc(F)cc1 (centres undefined)	–	inconclusive: -64.7% [inhibitor]
O=C(NCc1ccccc1F)C1CCN(Cc2cc3ccccc3n2Cc2cccc(Cl)c2)CC1	inconclusive: 10 µM [inhibitor, single point]	–
Cc1c(C(=O)OC2CCCCC2)[nH]c2c1C(=O)CC(c1ccccc1Cl)C2 (centres undefined)	inconclusive: 11.2 µM [inhibitor, single point]	–
Cc1ccccc1NC(=O)Nc1ccc2nc(N3CCN(C)CC3)cc(C)c2c1	active: 2 µM	–
COc1cc(C2c3c(oc4ccccc4c3=O)C(=O)N2c2nc(C)c(C)s2)ccc1O (centres undefined)	inconclusive: 0.141 µM [inhibitor, partial curve, poor fit]	–
Cc1nc2c(c(C)nn2-c2ccccc2)c(C)c1CCC(=O)Nc1ccc(F)cc1	inconclusive: 20 µM [inhibitor, single point]	–
COc1cc(Nc2nc(SCc3cccc(Cl)c3)nc3ccccc23)cc(OC)c1	active: 10 µM	–
O[C@H]1[C@H](NCc2ccccc2)[C@H]2CO[C@H](O2)[C@@H]1N1CCC(Cc2ccccc2)CC1	inconclusive: 3.98 µM [inhibitor, partial curve, poor fit]	–

Compound	Potency	activity, negative = inhibition
CC1=C[C@@H](CNCc2ccc(C#N)cc2)[C@H](C(C)C)C[C@H]1Cc1nnc(C(C)(C)C)o1	inconclusive: 2 µM [inhibitor, single point]	–
Cc1cccc(-c2ccc3c(c2)C(=O)N2CC[C@H](NS(=O)(=O)c4cccs4)[C@H]2C(=O)N3)c1C	active: 10 µM	–
CCc1ccccc1CN1CCCC12Cc1ccccc1CNC2=O (centres undefined)	active: 8.91 µM	–
CCOC(=O)C1CCN(C(=O)C2CCN(c3nnc(C)c4c(C)n(-c5ccccc5)nc34)CC2)CC1	active: 3.16 µM	–
CCCC(=O)Nc1cc(C(=O)NCc2ccc(OC)cc2)ccc1S(=O)(=O)c1ccc(Cl)cc1	inconclusive: 17.8 µM [inhibitor, partial curve, poor fit]	–
Cc1noc(C)c1CNCC1(COc2cnccn2)C[C@@H](O)[C@@H](O)C1 (some centres undefined)	inconclusive: 14.1 µM [inhibitor, single point]	–
COc1ccc(NC(=O)c2ccc3c(c2)OCCN(CCC(F)(F)F)C3)cn1	inconclusive: 5.62 µM [inhibitor, single point]	–
CCOC(=O)c1ccccc1NC(=O)N1CCCN(S(=O)(=O)c2ccc3c(ccn3CC)c2)CC1	inconclusive: 17.8 µM [inhibitor, single point]	–
COc1ccc(O[C@H]2COCCN(S(=O)(=O)c3ccc(OC)cc3)C2)cc1	inconclusive: 31.6 µM [inhibitor, single point]	–
CCc1ccc(CNC(=O)C2CCCN(c3nn4cc(-c5ccc(F)cc5)nc4s3)C2)cc1 (centres undefined)	inconclusive: 17.8 µM [inhibitor, single point]	–
CN1C[C@@H](NC(=O)Nc2ccccc2)C[C@H]1c1nc(-c2ccccc2)no1	inconclusive: 31.6 µM [inhibitor, single point]	–
Cc1ccc(S(=O)(=O)N(CC(=O)N2CCc3ccccc3C2)c2ccc(C)c(C)c2)cc1	inactive	–
Cn1nnnc1SCCNCc1ccc(OCc2ccccc2)cc1	inactive	–
CCOc1cccc(CN2CCCC(COc3ccccc3C(=O)N3CCCCC3)C2)c1 (centres undefined)	inconclusive: 10 µM [inhibitor, partial curve]	–
CCC(C)NC(=O)N1CCC(c2nn(CC(=O)NC)c3c2COCC3)CC1 (centres undefined)	–	inactive: 25.7% [at 5.79 µM]
COc1ccc(CC(=O)N[C@H]2C[C@@H](c3nc(-c4ccc5ccccc5c4)no3)N(C)C2)cc1	inconclusive: 15.8 µM [inhibitor, partial curve, poor fit]	–
COc1ccc(CN2C(=O)CO[C@H]3CN(C4CCOCC4)C[C@H]32)cc1	inconclusive: 31.6 µM [inhibitor, single point]	–
CCN(CC)CCCNC(=O)c1nn(-c2ccc(OC)c(Cl)c2)c(=O)c2c1c1ccccc1n2C	active: 1 µM	–
CC(C)S(=O)(=O)N1CCC(Nc2cccnc2)C1 (centres undefined)	–	inactive: 24.8% [at 5.79 µM]
COc1ccc(N2CC(C(=O)N3CCC(C(=O)NCCCc4ccccc4)C3)NC2=O)cc1 (centres undefined)	inconclusive: 10 µM [inhibitor, partial curve]	–
COc1ccc(-c2noc(CSc3nnc(-c4ccccc4)n3-c3ccc(F)cc3)n2)c(OC)c1	inconclusive: 10 µM [inhibitor, single point]	–
Cn1nccc1C(=O)NC1CCCN(c2cc(-c3ccc(Cl)cc3)[nH]n2)C1 (centres undefined)	inconclusive: 3.16 µM [inhibitor, single point]	–

Compound	Potency	activity, negative = inhibition
COc1cccc(N2C(=O)NC(=NC3CCCC3)C23CCN(C(=O)c2ccc(C)cc2)C3)c1 (centres undefined)	–	inconclusive: -44.8% [inhibitor]
COc1ccc(-c2cc(OC(=O)c3ccc(F)cc3)c3c(C)oc(C)c3c(=O)c2)cc1OC	active: 10 µM	–
CCCCN(C)CCCNC(=O)Cn1ncc2c3ccccc3n(Cc3cccc(Cl)c3)c2c1=O	active: 5.62 µM	–
CN(CC1CCOCC1)C(=O)Nc1cc(F)cc(F)c1	inactive	–
O=C(c1ccccc1F)N1CCn2c(nn(-c3ccc(Cl)cc3)c2=O)C1	–	inconclusive: -35.8% [inhibitor]
Cc1ccc(CC(=O)N2CCC(n3cc(-c4nc(C)no4)nn3)CC2)cc1	inconclusive: 1 µM [inhibitor, partial curve, poor fit]	–
CCCNC(=O)O[C@@H]1CC[C@]2(C)C(CC[C@@H](O)[C@H]2CC(=O)NCc2ccc(F)cc2)[C@]1(C)CO (some centres undefined)	inactive	–
O=C(CC1CCCCC1)N1CCC(n2cc(-c3nc(-c4ccccc4)no3)nn2)CC1	inactive	–
O=C(Cn1c(=O)n(-c2ccccc2)c(=O)c2ccc(C(=O)NCc3ccc4c(c3)OCO4)cc21)Nc1ccc(F)cc1	inconclusive: 20 µM [inhibitor, single point]	–
CCc1cccc(NC(=O)Cn2c(=O)n(-c3ccccc3C)c(=O)c3c2c2cc(C)ccc2n3C)c1	inconclusive: 17.8 µM [inhibitor, single point]	–
CC1=C[C@@H](CN2CCC(C)CC2)[C@H](C(C)C)C[C@H]1Cc1nnc(-c2cccnc2)o1	inconclusive: 1.26 µM [inhibitor, partial curve]	–
COCCNC(=O)c1cc(C2CC2)nc2c1c(C1CCCNC1)nn2C (centres undefined)	inactive	–
CN1C[C@@H](NC(=O)c2ccc(C(C)(C)C)cc2)C[C@H]1c1nc(-c2ccc3ccccc3c2)no1	inconclusive: 11.2 µM [inhibitor, single point]	–
Cn1ccnc1C(=O)N1CCc2nn(C)c(=O)n2CC1	inactive	–
C#CCNC(=O)C1CCc2nnc(CNC(=O)c3ccc(Cl)cc3Cl)n21 (centres undefined)	inactive	–
COc1ccc(-c2nc(SCC(=O)Nc3ccccc3)c(-c3ccc(F)cc3)[nH]2)cc1OC	inconclusive: 14.1 µM [inhibitor, single point]	–
O=C(c1cn[nH]c1)N1C[C@@H](COCC2CC2)[C@H](c2ccncc2)C1	inactive	–
CC(C)c1noc(-c2ccn3c(CNC(=O)c4ccc5ccccc5n4)nnc3c2)n1	inconclusive: 6.31 µM [inhibitor, partial curve, poor fit]	–
CN(C)CCNC(=O)c1nc2nc(-c3ccccc3)c(-c3ccncc3)cc2n1C	inconclusive: 14.1 µM [inhibitor, single point]	–
Cc1ccccc1CN1Cc2nc(-c3ccc4c(c3)OCO4)ccc2OCC1=O	inconclusive: 5.62 µM [inhibitor, partial curve, poor fit]	–
